In paper PMC9911399, “Two distinct binding modes provide the RNA-binding protein RbFox with extraordinary sequence specificity”:
Residue numbers refer to the chain shown, from its start. The list shows a part of the results.

T1: RBFOX1 RRM RbFoxmut (Fox-RRM*) (Homo sapiens, UniProt Q9NWB1 109-208, R118D;E147R;N151S;E152T)
T1 sequence: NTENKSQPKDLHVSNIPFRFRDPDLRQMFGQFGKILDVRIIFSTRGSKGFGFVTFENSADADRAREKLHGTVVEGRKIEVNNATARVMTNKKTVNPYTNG

B1: UAAAGUU (DNA:RNA)
RNA: GGGAGACCGGAAUUCAGAUUGUCCUAAAGUUUUAAAUCCCGUCGUAGCCACCA
DNA 1: CAATCTGAATTCCGGTCTCCC
DNA 2: TGGTGGCTACGACGGGATT
B2: AAUUGCA (DNA:RNA)
RNA: B1 RNA with U25A, A27U, A28U, U30C, U31A
DNA 1: CAATCTGAATTCCGGTCTCCC
DNA 2: TGGTGGCTACGACGGGATT
B3: GAGCGCG (DNA:RNA)
RNA: B1 RNA with U25G, A27G, A28C, U30C, U31G
DNA 1: CAATCTGAATTCCGGTCTCCC
DNA 2: TGGTGGCTACGACGGGATT
B4: ACCCAAG (DNA:RNA)
RNA: GGGAGACCGGAAUUCAGAUUGUCCACCCAAGUUAAAUCCCGUCGUAGCCACCA
DNA 1: CAATCTGAATTCCGGTCTCCC
DNA 2: TGGTGGCTACGACGGGATT
B5: ACACUGA (DNA:RNA)
RNA: B4 RNA with C27A, A29U, A30G, G31A
DNA 1: CAATCTGAATTCCGGTCTCCC
DNA 2: TGGTGGCTACGACGGGATT
B6: AUGUAGU (DNA:RNA)
RNA: B4 RNA with C26U, C27G, C28U, A30G, G31U
DNA 1: CAATCTGAATTCCGGTCTCCC
DNA 2: TGGTGGCTACGACGGGATT
B7: AUCUUGU (DNA:RNA)
RNA: B4 RNA with C26U, C28U, A29U, A30G, G31U
DNA 1: CAATCTGAATTCCGGTCTCCC
DNA 2: TGGTGGCTACGACGGGATT
B8: CAUCAAC (DNA:RNA)
RNA: B4 RNA with A25C, C26A, C27U, G31C
DNA 1: CAATCTGAATTCCGGTCTCCC
DNA 2: TGGTGGCTACGACGGGATT
B9: UAGCGCG (DNA:RNA)
RNA: B1 RNA with A27G, A28C, U30C, U31G
DNA 1: CAATCTGAATTCCGGTCTCCC
DNA 2: TGGTGGCTACGACGGGATT
B10: AGGGAUC (DNA:RNA)
RNA: B4 RNA with C26G, C27G, C28G, A30U, G31C
DNA 1: CAATCTGAATTCCGGTCTCCC
DNA 2: TGGTGGCTACGACGGGATT
B11: AUAGUUG (DNA:RNA)
RNA: B4 RNA with C26U, C27A, C28G, A29U, A30U
DNA 1: CAATCTGAATTCCGGTCTCCC
DNA 2: TGGTGGCTACGACGGGATT
B12: CCUUGCC (DNA:RNA)
RNA: B4 RNA with A25C, C27U, C28U, A29G, A30C, G31C
DNA 1: CAATCTGAATTCCGGTCTCCC
DNA 2: TGGTGGCTACGACGGGATT
B13: ACGACCC (DNA:RNA)
RNA: B4 RNA with C27G, C28A, A29C, A30C, G31C
DNA 1: CAATCTGAATTCCGGTCTCCC
DNA 2: TGGTGGCTACGACGGGATT
B14: ACCCAAC (DNA:RNA)
RNA: B4 RNA with G31C
DNA 1: CAATCTGAATTCCGGTCTCCC
DNA 2: TGGTGGCTACGACGGGATT
B15: CGCUGCG (DNA:RNA)
RNA: B4 RNA with A25C, C26G, C28U, A29G, A30C
DNA 1: CAATCTGAATTCCGGTCTCCC
DNA 2: TGGTGGCTACGACGGGATT
B16: UUAGUAA (DNA:RNA)
RNA: B1 RNA with A26U, A28G, G29U, U30A, U31A
DNA 1: CAATCTGAATTCCGGTCTCCC
DNA 2: TGGTGGCTACGACGGGATT
B17: CUGUAUC (DNA:RNA)
RNA: B4 RNA with A25C, C26U, C27G, C28U, A30U, G31C
DNA 1: CAATCTGAATTCCGGTCTCCC
DNA 2: TGGTGGCTACGACGGGATT
B18: GAGUAUU (DNA:RNA)
RNA: B1 RNA with U25G, A27G, A28U, G29A
DNA 1: CAATCTGAATTCCGGTCTCCC
DNA 2: TGGTGGCTACGACGGGATT
B19: UGAUGAG (DNA:RNA)
RNA: B1 RNA with A26G, A28U, U30A, U31G
DNA 1: CAATCTGAATTCCGGTCTCCC
DNA 2: TGGTGGCTACGACGGGATT
B20: GAGUUAU (DNA:RNA)
RNA: B1 RNA with U25G, A27G, A28U, G29U, U30A
DNA 1: CAATCTGAATTCCGGTCTCCC
DNA 2: TGGTGGCTACGACGGGATT

Target: T1, RBFOX1 RRM RbFoxmut (Fox-RRM*)
Assay: EMSA; HiTS-Eq, 1 nM pool, 10 min; buffer printed only for the single-RNA assays: 10 mM Tris pH 7.5, 150 mM NaCl, 3.4 mM EDTA, 0.001% NP-40, 30 C
Conditions: tags: His6 N-terminal (pET28a); label: 5' 32P
Method in brief: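 Purified wild-type or mutant RbFox RRM at increasing concentrations was equilibrated with 1 nM of 5′-radiolabelled RNA carrying 7 randomized nucleotides for 10 min in 50 µL. Unbound RNA was separated by 8% native PAGE and sequenced. Relative association constants came from read-count changes of each RNA species compared with the control reaction, normalised to the cognate motif.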

Binder | binding signal
B1 | 0.072 KA relative to UGCAUGU
B2 | 0.181 KA relative to UGCAUGU
B3 | 0.127 KA relative to UGCAUGU
B4 | 0.0886 KA relative to UGCAUGU
B5 | 0.0748 KA relative to UGCAUGU
B6 | 0.199 KA relative to UGCAUGU
B7 | 0.153 KA relative to UGCAUGU
B8 | 0.0636 KA relative to UGCAUGU
B9 | 0.13 KA relative to UGCAUGU
B10 | 0.12 KA relative to UGCAUGU
B11 | 0.174 KA relative to UGCAUGU
B12 | 0.252 KA relative to UGCAUGU
B13 | 0.0588 KA relative to UGCAUGU
B14 | 0.0767 KA relative to UGCAUGU
B15 | 0.125 KA relative to UGCAUGU
B16 | 0.133 KA relative to UGCAUGU
B17 | 0.362 KA relative to UGCAUGU
B18 | 0.125 KA relative to UGCAUGU
B19 | 0.12 KA relative to UGCAUGU
B20 | 0.116 KA relative to UGCAUGU
